# According to the supplement of paper PMC3334620:
# Over roughly 33,000 sequences, “E-score (-0.5 to 0.5)” has its median near -0.013; the highest 2% begin near 0.3. This is one part of the list.
# Target: T1, Msn1 (UniProt P22148)
# T1 sequence: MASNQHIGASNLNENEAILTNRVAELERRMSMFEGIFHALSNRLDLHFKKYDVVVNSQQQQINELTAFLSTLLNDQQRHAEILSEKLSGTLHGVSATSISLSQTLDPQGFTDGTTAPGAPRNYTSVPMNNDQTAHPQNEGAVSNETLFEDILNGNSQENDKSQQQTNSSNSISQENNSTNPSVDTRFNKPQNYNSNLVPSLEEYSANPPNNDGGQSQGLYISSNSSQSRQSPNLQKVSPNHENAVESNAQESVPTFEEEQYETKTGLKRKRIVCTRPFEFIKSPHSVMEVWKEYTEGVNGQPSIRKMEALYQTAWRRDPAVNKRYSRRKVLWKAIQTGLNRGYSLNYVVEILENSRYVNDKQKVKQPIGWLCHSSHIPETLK
# Test: PBM E-score (8-mer binding enrichment) (E-score (-0.5 to 0.5)); higher = stronger / more preferred TF binding; most listed sequences are background and not binding sites
# Conditions: protein concentration: 200 nM; construct: GST-full length
# Method: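 Universal 'all 10-mer' protein binding microarrays (Agilent AMADID 015681) probed with GST-tagged S. cerevisiae TFs (full-length or DBD) made by in vitro transcription/translation (PURExpress), about 100-200 nM. Bound TF was detected with fluorescent anti-GST. Each ungapped 8-mer (which stands for itself and its reverse complement) is scored by the PBM enrichment score (E-score), a modified Wilcoxon-Mann-Whitney statistic from -0.5 to +0.5, computed with the Universal PBM Analysis Suite. Scale: above 0.35 generally sequence-specific binding.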
row,Sequence,PBM E-score
1,AGGGCGTA,-0.109
2,ATCCTACG,-0.179
3,CGTGCCGA,-0.0647
4,CGGTAGGA,-0.196
5,GCCGCCGA,0.064
6,ATTCACGA,0.0369
7,AGGGATAA,0.0683
8,GACCCTGC,-0.142
9,ATTTGTTG,0.177
10,AGGCAAAG,0.0212
11,AATGGAGA,0.0612
12,ACTAGTCT,-0.0559
13,CGTAAGTC,0.132
14,ACCATTCG,-0.0321
15,ATTGCAAA,0.122
16,CGGTTAGC,-0.143
17,CGTTAATA,-0.0173
18,ATTAAGTA,0.091
19,GGGACAAC,0.375
20,GGGAAAAC,-0.204
21,GCCGGCCC,-0.102
22,CAAGCTTA,-0.021
23,GACTGTCC,-0.0339
24,TATGACAA,0.408
25,CAATCAGG,-0.0196

row,Sequence,PBM E-score
1,CAGCTACA,-0.127
2,GCCTTGCC,-0.196
3,GACTAAGC,0.0345
4,CTTTAAAA,0.134
5,AATCTGAG,-0.0808
6,CAATACGA,0.0135
7,ACGGTCTG,-0.0966
8,GTGCCCAA,-0.0493
9,GAGTATAC,0.0339
10,ACCTCCAA,-0.138
11,ATGGAAAA,0.141
12,ACGGGTCA,-0.199
13,CCTGATCG,-0.163
14,AAATTGAT,0.153
15,ATTTGTGA,-0.0129
16,TCCTGCCA,-0.00769
17,GAGCTAAA,-0.0435
18,ATCAATGC,-0.0193
19,AACATCCA,0.0442
20,GAAAAGGA,0.108
21,ATAGCCAG,-0.138
22,AAACCCAG,-0.0478
23,ACATCAAC,0.144
24,CCACCAAG,-0.155
25,AATAACAC,-0.0777

row,Sequence,PBM E-score
1,GACCAAGC,0.0159
2,AGGCTGAG,-0.114
3,CCAAAGTA,-0.0844
4,GAAGTTAA,-0.153
5,CAAACCAC,-0.0607
6,ACATCAAT,0.0372
7,CGCTGTGC,-0.125
8,CAACATCC,-0.257
9,CGACAAGC,-0.0394
10,CCGGGAGC,-0.192
11,AGGGACCT,-0.0323
12,ATGATCTG,0.0873
13,AAATACAT,0.0274
14,ACAACTGC,0.125
15,TAACGACA,0.276
16,GTAGCTCA,-0.0179
17,ATCAAAGA,0.0616
18,GATTCGGC,0.116
19,CCCTAGAG,-0.0793
20,GCCTATCC,-0.182
21,AGCATGTC,0.318
22,GGATAACA,0.0272
23,ACGTTCAA,0.0815
24,ATATTAGG,0.229
25,AGTACCCC,-0.245

row,Sequence,PBM E-score
1,AGGATGGA,0.00513
2,ATTGCAAT,0.0804
3,ATCGACAA,0.256
4,CTTCGAAC,0.0351
5,GACTCACC,-0.239
6,GCCACTCA,-0.0732
7,TATAGGAA,0.0279
8,CAGTTGTC,0.32
9,GTATCAGA,-0.0558
10,GGACTGCA,-0.0495
11,GACTAGAA,0.0925
12,CTTGGGTA,0.0613
13,ATCGGCGG,0.00353
14,ACATCAGC,-0.0793
15,CGGACCCC,-0.192
16,AAACTAAT,0.205
17,ATCTTCGG,0.146
18,GTTACAAC,0.0825
19,ACGTGCCT,-0.148
20,ATTTGGGA,0.144
21,ATCCCATC,-0.164
22,ATGTCAAT,0.233
23,GTCCCCAC,0.0565
24,GAGTGGTA,-0.02
25,AGCCTGCG,-0.0627

row,Sequence,PBM E-score
1,AATCGAAC,-0.126
2,GCAGATTA,-0.0358
3,CAGTGCCG,-0.0209
4,CGGGGTAG,-0.22
5,AATTATTC,0.191
6,AGAAATTC,0.0525
7,ACCACCAC,-0.143
8,AGCTAAGG,-0.267
9,AAATCGCA,0.072
10,CCTTGTGA,-0.0976
11,CGCTGCCC,-0.327
12,CGGTTTCA,0.0403
13,CAAGGTGG,0.00095
14,CACAACGA,-0.00713
15,ATGGAGGA,-0.0388
16,GAGGCCTA,-0.137
17,CTGAGCGA,0.0585
18,AGGGCGCA,-0.181
19,CACGTATC,0.0358
20,CAGGGTCA,-0.105
21,GGTAAAAC,-0.0157
22,ACAATCCG,0.23
23,CTAGCAAG,-0.121
24,GGAGAACA,0.0888
25,CAAACCTG,-0.0521

row,Sequence,PBM E-score
1,CAGAGAGA,-0.0985
2,AAATCCAA,0.00404
3,ATAACTGG,-0.0196
4,GAAGGAGA,-0.25
5,GATAGCAA,0.088
6,ATGCATTA,0.198
7,AGGACAAT,0.483
8,ACTGAGCC,0.0458
9,ACACAGAG,-0.108
10,CCGTTATA,0.0612
11,GAGTCAGA,0.00841
12,AAAAACGG,0.16
13,CCAATTAA,0.0133
14,AGTGTTAA,0.0169
15,ACTAACAG,0.22
16,AACTCCGA,0.142
17,CTGTAGAA,-0.0675
18,AGAGGAAA,0.11
19,CCGGCTGC,-0.186
20,CAATAAAA,0.194
21,AATCTCTG,-0.00942
22,AGAGAGAA,-0.0619
23,AAAAGGCC,-0.093
24,CTGATGGA,-0.0214
25,ACGCCTTG,0.0227

row,Sequence,PBM E-score
1,AGTCTGAA,0.029
2,AAAGCTTT,0.195
3,ACTCAGAC,0.207
4,AGTACGGA,0.15
5,AAAACAGT,0.184
6,ACAGCCCG,-0.146
7,ATAGTCTC,0.16
8,ATGAGTTC,0.0167
9,ATAACCGG,-0.00703
10,AGACTATG,0.0207
11,GTATTATA,0.253
12,ATAATTGG,0.073
13,ATATGAAA,0.147
14,AATATAGT,0.234
15,CTGCAGTC,-0.0842
16,TCCGACCA,0.0392
17,TATCAGAA,0.132
18,AAATTACC,0.14
19,AGAGTAGC,-0.196
20,GAGAAAAC,0.0544
21,AAAAAAAT,0.159
22,GAAAACGA,0.0898
